# Data as given in PubChem BioAssay AID1030 (National Center for Advancing Translational Sciences (NCATS), 2008).
# Among all 220,000 compounds or so, about 16,000 (7.3%) were called active. The shares of active, inactive and inconclusive entries below differ from those in the screen. The call rests on the fitted dose curve; in most records, active means well fitted inhibition curve with a large enough effect (not every such curve was filed as active); inconclusive means small, poorly fitted or top-dose-only effect, or another doubt; inactive means no such curve, though single readings can be large or run the other way. A potency beside an inconclusive call is a rough fit, not a confirmed value.
# Target: Aldehyde dehydrogenase 1A1 (Homo sapiens) (UniProt P00352)
# UniProt P00352, sequence (P00352 whole entry, looked up): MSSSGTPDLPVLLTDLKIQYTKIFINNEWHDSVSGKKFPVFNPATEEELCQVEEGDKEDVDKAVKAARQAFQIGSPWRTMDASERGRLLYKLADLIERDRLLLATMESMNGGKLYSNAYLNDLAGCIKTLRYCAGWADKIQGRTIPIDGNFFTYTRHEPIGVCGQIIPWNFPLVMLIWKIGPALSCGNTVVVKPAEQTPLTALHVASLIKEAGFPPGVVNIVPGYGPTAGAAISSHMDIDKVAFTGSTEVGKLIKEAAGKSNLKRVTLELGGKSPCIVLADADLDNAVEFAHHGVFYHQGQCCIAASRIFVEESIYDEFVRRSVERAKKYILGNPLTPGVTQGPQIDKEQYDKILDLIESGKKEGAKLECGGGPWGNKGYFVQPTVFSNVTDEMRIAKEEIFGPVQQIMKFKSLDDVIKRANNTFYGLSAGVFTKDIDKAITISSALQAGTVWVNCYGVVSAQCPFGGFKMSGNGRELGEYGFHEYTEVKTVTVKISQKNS
# Assay: qHTS Assay for Inhibitors of Aldehyde Dehydrogenase 1 (ALDH1A1)
# Details: Purified ALDH1A1, NADH fluorescence, propionaldehyde substrate; series mostly up to 75.3 µM
# Potency means the concentration at half of the fitted maximal effect; tags describe the fitted curve by direction and shape.
row,Compound,Potency
1,CC(=O)c1cc(C#N)c(SCc2ccccc2)nc1C,active: 17.8 µM
2,O=C(N/N=C/c1ccc2c(c1)OCO2)c1ccc(NS(=O)(=O)c2cccs2)cc1,"inconclusive: 39.8 µM [inhibitor, single point]"
3,Nc1nc(N)c2ncc(C(=O)CCc3ccccc3)nc2n1,"inconclusive: 17.8 µM [inhibitor, partial curve]"
4,COc1ccc2c(c1)OC(=O)CC2c1ccccc1OC (centres undefined),"inconclusive: 63.1 µM [inhibitor, single point]"
5,COc1cc(-c2nc(S(=O)(=O)c3ccc(C)cc3)c(N(C)C)o2)cc(OC)c1OC,"inconclusive: 25.1 µM [inhibitor, partial curve]"
6,COc1ccc(C2C=C(c3ccc(Br)cc3)Nc3nc(NS(C)(=O)=O)nn32)cc1 (centres undefined),"inconclusive: 25.1 µM [inhibitor, partial curve]"
7,COC1CCCCC1Nc1cc(C)cc(C)c1 (centres undefined),"inconclusive: 44.7 µM [inhibitor, single point]"
8,COc1ccc(NC(=O)c2ccc(COc3ccccc3)o2)cc1,"inconclusive: 39.8 µM [inhibitor, partial curve, poor fit]"
9,Cc1ccc(C(=O)NCCOc2cccc(C)c2)cc1,inactive
10,O=C(Nc1ccccc1)NC1CCN(Cc2c(F)cccc2Cl)CC1,"inconclusive: 39.8 µM [inhibitor, single point]"
11,CCC1CCCCN1C(=O)CSc1nnc(-c2ccc(Cl)s2)o1 (centres undefined),"inconclusive: 39.8 µM [inhibitor, single point]"
12,CCS(=O)(=O)N1CCN(C2Cc3ccccc3C2)CC1,"inconclusive: 39.8 µM [inhibitor, single point]"
13,Cn1c(-c2ccccc2)cnc1SCc1nc2ccccc2c(=O)[nH]1,active: 31.6 µM
14,CCCn1c(N/N=C\C=C\c2ccccc2)nc2c1c(=O)[nH]c(=O)n2C,inactive
15,Cn1c(=O)c2c3c(sc2n2c(SCC(N)=O)nnc12)CC(C(C)(C)C)CC3 (centres undefined),"inconclusive: 20 µM [inhibitor, partial curve]"
16,CC(=O)OC1CC[C@]2(C)C(CC(OC(C)=O)[C@@]3(C)C4=CC(=O)OC(c5ccoc5)[C@]4(C)CCC23)C1(C)C (some centres undefined),inactive
17,COC(=O)CP(=O)(c1ccccc1)c1ccccc1,inactive
18,CCc1ccc(NC(=S)Nc2ccc3[nH]c(=O)[nH]c3c2)cc1,"inconclusive: 35.5 µM [inhibitor, single point]"
19,CC(C)c1ccc2oc(=O)cc(CN3CCN(c4ccc(F)cc4)CC3)c2c1,"inconclusive: 44.7 µM [inhibitor, single point]"
20,CCN1CCN(c2cc(C)c3cc(NC(=O)c4ccccc4F)ccc3n2)CC1,"inconclusive: 22.4 µM [inhibitor, single point]"
21,CCN(Cc1cc2ccc(C)cc2[nH]c1=O)C(=O)c1ccncc1,"inconclusive: 35.5 µM [inhibitor, single point]"
22,O=C(c1ccccc1)c1ccc(-c2ccc(O)cc2)cc1,inactive
23,N#CC1=C(N)OC2=C(C(=O)CCC2)C1C1CC=CCC1 (centres undefined),active: 10 µM
24,C=CSc1sc(Cl)c(N(C)C)c1[N+](=O)[O-],active: 7.94 µM
25,COc1ccc(/C=C/C(=O)OCC(=O)Nc2cc(S(=O)(=O)N(C)C)ccc2Cl)cc1,"inconclusive: 39.8 µM [inhibitor, single point]"

row,Compound,Potency
1,Cc1ccccc1NS(=O)(=O)c1ccc(Cl)cc1,"inconclusive: 8.91 µM [inhibitor, single point]"
2,Cc1ccc(C(=O)CSc2nc3cc(S(=O)(=O)N4CCOCC4)ccc3o2)cc1,active: 14.1 µM
3,O=C1CC(c2ccccc2)CN1C(=O)c1ccccc1 (centres undefined),"inconclusive: 22.4 µM [inhibitor, single point]"
4,O=c1[nH]cnc2scc(-c3ccsc3)c12,"inconclusive: 25.1 µM [inhibitor, partial curve]"
5,OCC1O[C@H](OC2C(CO)O[C@@](O)(CO)C2O)C(O)C(O)C1O (some centres undefined),inactive
6,CCCOCC(C)OCC(C)O (centres undefined),inactive
7,Cc1cccn2cc(CCNC(=O)c3ccc(Br)o3)nc12,inactive
8,O=C(NC(=S)NNC(=O)[C@H]1C[C@@H]1c1ccccc1)c1ccc(F)cc1,active: 25.1 µM
9,O=C(CN1CCN(C(=O)c2cccs2)CC1)NC1CCCCC1,"inconclusive: 0.0447 µM [inhibitor, full curve, poor fit]"
10,Cc1ccc(S(=O)(=O)Cn2nnnc2CN2CCCC3(CCCCC3)C2)cc1,active: 15.8 µM
11,O=S1(=O)CCC(NC(=S)NC2CCS(=O)(=O)C2)C1 (centres undefined),inactive
12,COc1ccc(CCNC(=O)C2CC(=O)N(C3CCCCCCC3)C2)cc1OC (centres undefined),"inconclusive: 39.8 µM [inhibitor, single point]"
13,Cc1ccc(C(=O)N2CCN(C3c4cccc5cccc(c45)C3NS(=O)(=O)c3ccccc3)CC2)cc1 (centres undefined),active: 22.4 µM
14,CN(C)c1ccc(/C=N/NC(=O)c2ccc(Cl)cc2)cc1,"inconclusive: 44.7 µM [inhibitor, single point]"
15,Cn1cnnc1SCc1ccc(C(=O)NN)cc1,"inconclusive: 20 µM [inhibitor, single point]"
16,CCc1c(C)nc(N)n2c(SCC(=O)N3CCCC(C)C3)nnc12 (centres undefined),"inconclusive: 20 µM [inhibitor, partial curve]"
17,Cc1sc2nc(CSCC(=O)Nc3ccc(N4CCOCC4)cc3)[nH]c(=O)c2c1C,active: 11.2 µM
18,COc1ccccc1NC(=O)Cn1cncc1-c1ccc([N+](=O)[O-])cc1,"inconclusive: 15.8 µM [inhibitor, partial curve]"
19,CC(=O)Nc1cc(C(=O)N2CCc3ccccc3C2)ccc1Sc1ccc(C)cc1,"inconclusive: 39.8 µM [inhibitor, single point]"
20,Cc1oc(=O)c(NC(=O)c2ccc(Cl)cc2)cc1C(=O)c1ccccc1,active: 3.55 µM
21,Cc1ccc(-n2c(SCC(N)=O)nc3c([nH]c4ccccc43)c2=O)cc1,active: 11.2 µM
22,Cc1ccc(Nc2nc(N3CCOCC3)c3ccccc3n2)cc1,"inconclusive: 25.1 µM [inhibitor, partial curve]"
23,COC(=O)CCCC(=O)N1CCCC(C(=O)c2ccc(OC)cc2C)C1 (centres undefined),active: 2.51 µM
24,CCC(=O)OC1c2ccccc2C(=O)N1Cc1ccccc1 (centres undefined),inactive
25,CCC(=O)N(Cc1ccco1)Cc1cc2cc3c(cc2[nH]c1=O)OCO3,"inconclusive: 31.6 µM [inhibitor, single point]"

row,Compound,Potency
1,Cc1cc(/C=N/Nc2ccc([N+](=O)[O-])cn2)c(C)n1-c1ccc(C(=O)O)cc1,"inconclusive: 39.8 µM [inhibitor, single point]"
2,O=C(c1ccco1)N1CCN(C(=O)C(c2ccccc2)c2ccccc2)CC1,inactive
3,O=S(=O)(c1ccc(NC(=S)N/N=C/c2ccc(N3CCOCC3)cc2)cc1)N1CCOCC1,"inconclusive: 25.1 µM [inhibitor, partial curve]"
4,CN1CCCN(Cc2ccccc2C(F)(F)F)CC1,"inconclusive: 39.8 µM [inhibitor, single point]"
5,CCCc1cc(=O)oc2cc(C)c(CN3CCCC3)c(O)c12,active: 35.5 µM
6,O=C(N/C(=C\c1ccco1)C(=O)N1CCOCC1)c1ccco1,"inconclusive: 35.5 µM [inhibitor, single point]"
7,O=c1c(-c2ccc(O)cc2)coc2cc(O)ccc12,"inconclusive: 35.5 µM [inhibitor, single point] [middle of 7 runs]"
8,COc1ccc(N2C3=C(CC4=C2CCCC4=O)C(=O)CCC3)cc1,"inconclusive: 35.5 µM [inhibitor, single point]"
9,O=C(NCc1cccnc1)c1cccnc1-c1nc2ccccc2s1,active: 20 µM
10,COc1ccc2c(c1OC)C(=O)OC2Nc1ccccn1 (centres undefined),"inconclusive: 39.8 µM [inhibitor, single point]"
11,COc1cc(N/N=C/c2ccc(N(C)C)cc2)ncn1,"inconclusive: 35.5 µM [inhibitor, partial curve]"
12,CCOC(=O)Cn1c2ccccc2n2nc(CCC(=O)O)c(=O)nc12,"inconclusive: 23.8 µM [inhibitor, partial curve]"
13,COC(=O)CSc1nnc(CNc2ccc(Cl)cc2)n1-c1ccccc1,inactive
14,CCOC(=O)N1CCN(C(=O)COc2cccc3c2CCN(Cc2ccccc2F)C3=O)CC1,"inconclusive: 20 µM [inhibitor, single point]"
15,C[C@H]1COc2c(N3CCN(C)CC3)c(F)cc3c(=O)c(C(=O)NCc4ccco4)cn1c23,"inconclusive: 28.2 µM [inhibitor, single point]"
16,CC(C)(C)c1ccc(C(=O)N/C(=C\c2cccs2)C(=O)NCc2ccco2)cc1,active: 3.16 µM
17,CC(=C/c1ccc(C(C)C)cc1)/C=N/NC(=O)Cn1nnnc1N,inactive
18,COc1ccc2[nH]c(=O)c(-c3noc(-c4ccccc4)n3)cc2c1,"inconclusive: 15.8 µM [inhibitor, partial curve]"
19,CCn1c(=O)cc(SCC(=O)N2CCCCC2)c2ccccc21,active: 20 µM
20,CCCNC(=O)CSc1nc2ccccc2c(=O)n1CCC,"inconclusive: 0.398 µM [inhibitor, full curve, poor fit]"
21,COc1cccc(N2CCN(C(c3ccccn3)c3nnnn3C(C)(C)C)CC2)c1 (centres undefined),"inconclusive: 39.8 µM [inhibitor, single point]"
22,CN(C)c1cc[n+](Cc2ccccc2)cc1,inactive
23,CCOCCCNC(=O)c1ccc(CS(=O)(=O)Cc2ccccc2F)o1,inactive
24,Cc1ccc(C)c(-c2nc3ccc(N)cc3[nH]2)c1,"inconclusive: 31.6 µM [inhibitor, partial curve]"
